Reference: the supplement of paper PMC4967469
The IC50 comes from the fitted curve, where viability falls to half of the control; a fit beyond the top or the lowest dose is shown as a bound at that dose. For AUC the same curve is integrated over the 256-fold range of doses and scaled to a fraction; values near 1 show little effect. A top dose marked as inferred is not printed in the source and was worked back from the curve model. For some of these results: Drugs with an entry number were screened twice under separate entries, and the two screens often disagree.

Key:
Test in all cases: Viability of human cancer cell lines after 72 h of drug (GDSC screen)
[1] = compound: O=C1NC(=O)c2c1c(-c1ccccc1Cl)cc1[nH]c3ccc(O)cc3c21 [Wee1 inhibitor 681640]; conditions: top dose 2 µM; top dose inferred
Experimental: (§1)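 Human cancer cell lines in 384-well plates, medium with 10% serum, drug for 72 h over a 256-fold dose range (nine 2-fold or five 4-fold steps up to the top dose). Adherent lines were fixed and stained with the nucleic acid dye Syto60, suspension lines read with resazurin; signal relative to control wells, capped at 0 and 100%. One two-parameter sigmoid per drug and line, fitted in a mixed model over all curves with the slope shared within a line.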

[2] = compound: Cc1cccc(-c2[nH]c(C(C)(C)C)nc2-c2ccc3nccnc3c2)n1 [SB-525334]; conditions: top dose 20 µM; top dose inferred
Experimental: as §1

[3] = compound: Cc1ccc(-n2nc(C(C)(C)C)cc2NC(=O)Nc2ccc(OCCN3CCOCC3)c3ccccc23)cc1 [BIRB 0796]; conditions: top dose 10 µM; top dose inferred
Experimental: as §1

[4] = compound: CNC(=O)c1ccc(Nc2cc(Nc3ccccc3S(=O)(=O)C(C)C)c3cc[nH]c3n2)nc1 [HG-5-113-01]; conditions: top dose 10 µM; top dose inferred
Experimental: as §1

[5] = compound: Cc1cc(N2CCOCC2)cc2[nH]c(-c3c(NC[C@@H](O)c4cccc(Cl)c4)cc[nH]c3=O)nc12 [BMS-536924]
Experimental: as §1

[6] = compound: COc1cc(N2CCN(C)CC2)ccc1Nc1ncc2c(n1)N(C)c1ccccc1C(=O)N2C [XMD8-85]; conditions: top dose 8 µM; top dose inferred
Experimental: as §1

[7] = compound: CC(C)=CC[C@@H](O)C1=CC(=O)c2c(O)ccc(O)c2C1=O [Shikonin]; conditions: top dose 16 µM; top dose inferred
Experimental: as §1

[8] = compound: O=C(c1cc(Cc2n[nH]c(=O)c3ccccc23)ccc1F)N1CCN(C(=O)C2CC2)CC1 [Olaparib]
Experimental: as §1

[9] = compound: COc1cc(-c2nn([C@H]3CC[C@H](N4CCN(C(C)=O)CC4)CC3)c3ncnc(N)c23)ccc1NC(=O)c1cc2ccccc2n1C [A-770041]; conditions: top dose 5.12 µM; top dose inferred
Experimental: as §1

[10] = compound: NC(=O)c1ccc(N(C(N)=O)c2c(F)cccc2F)nc1-c1ccc(F)cc1F [VX-702]; conditions: top dose 2 µM; top dose inferred
Experimental: as §1

[11] = compound: CCNc1cc(NC2CCC(O)CC2)nc(Nc2ccc3c(ccn3Cc3ccccc3)c2)n1 [CGP-082996 (CINK4)]; conditions: top dose 5.12 µM; top dose inferred
Experimental: as §1

[12] = top dose 4 µM, screen: GDSC drug entry 1091, top dose inferred
[13] = top dose 5.12 µM, screen: GDSC drug entry 62
[14] = top dose 5 µM, screen: GDSC drug entry 1017, top dose inferred
[15] = top dose 10 µM, screen: GDSC drug entry 1495

Row | Cell Line | AUC [1] | IC50 [1] [µM] | AUC [2] | IC50 [2] [µM] | AUC [3] | IC50 [3] [µM] | AUC [4] | IC50 [4] [µM] | AUC [5, 12] | IC50 [5, 12] [µM] | AUC [5, 13] | IC50 [5, 13] [µM] | AUC [6] | IC50 [6] [µM] | AUC [7] | IC50 [7] [µM] | AUC [8, 14] | IC50 [8, 14] [µM] | AUC [8, 15] | IC50 [8, 15] [µM] | AUC [9] | IC50 [9] [µM] | AUC [10] | IC50 [10] [µM] | AUC [11] | IC50 [11] [µM]
1 | NCI-H1304 (small cell lung carcinoma, suspension) | 0.97 | > 2 | 0.98 | > 20 | 0.956 | > 10 | 0.846 | 8.2 | 0.917 | > 4 | 0.988 | > 5.12 | 0.939 | > 8 | 0.867 | > 16 | 0.982 | > 5 | 0.986 | > 10 | 0.96 | > 5.12 | 0.983 | > 2 | 0.984 | > 5.12
2 | NCI-H1395 (lung adenocarcinoma, adherent) | 0.974 | > 2 | 0.969 | > 20 | 0.931 | > 10 | 0.877 | > 10 | 0.946 | > 4 | 0.979 | > 5.12 | 0.945 | > 8 | 0.903 | > 16 | 0.97 | > 5 | 0.875 | > 10 | 0.899 | > 5.12 | 0.962 | > 2 | 0.925 | > 5.12
3 | NCI-H1436 (small cell lung carcinoma, suspension) | 0.975 | > 2 | 0.931 | > 20 | 0.932 | > 10 | 0.81 | 6.18 | 0.984 | > 4 | 0.924 | > 5.12 | 0.981 | > 8 | 0.414 | 0.561 | 0.983 | > 5 | 0.98 | > 10 | 0.788 | 2.6 | 0.962 | > 2 | 0.983 | > 5.12
4 | NCI-H1694 (small cell lung carcinoma, suspension) | 0.964 | > 2 | 0.959 | > 20 | 0.98 | > 10 | 0.884 | > 10 | 0.959 | > 4 | 0.952 | > 5.12 | 0.958 | > 8 | 0.48 | 0.885 | 0.988 | > 5 | 0.983 | > 10 | 0.983 | > 5.12 | 0.988 | > 2 | 0.984 | > 5.12
5 | NCI-H1770 (non-small cell lung carcinoma, suspension) | 0.992 | > 2 | 0.98 | > 20 | 0.989 | > 10 | 0.866 | 7.16 | 0.968 | > 4 | 0.869 | 3.76 | 0.79 | 3.09 | 0.237 | 0.196 | 0.992 | > 5 | 0.985 | > 10 | 0.964 | > 5.12 | 0.989 | > 2 | 0.91 | > 5.12
